Test results from PubChem BioAssay (NCATS).
The inconclusive results got no clear call from the source; some entries with a clear call stand among them for comparison. For part of these data: Potencies of inconclusive entries are doubtful fits and often do not repeat. For part of these data: A note “side channel” means that the fit belongs to a control or component signal, not to the main read-out. Calls of active or inactive are those of the source. Unless noted, calls follow the shape of the dose curve; as a rule, active = well fitted curve in either direction with a large enough effect (not every such curve was filed as active); inconclusive = small, poorly fitted or top-dose-only effect, or another doubt; inactive = flat fitted curve, though single readings scatter.

Columns and labels:
[1] = NFAT Signaling Pathway (AID 444); details: Jurkat NFAT-bla M1, carbachol, beta-lactamase ratio, 5 h; at 17.2 µM (top of the series) unless noted;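 also: carbachol stimulus at about its EC50 of 1 µM final; % is scaled to controls: 0 for no effect and ±100 for the full control effect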
Summary of the method: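 Read-out: CCF4 FRET ratio (460 nm/530 nm) after 1 h RT dye loading, used for %activity and AC50 from titration series. Cells: Jurkat NFAT-β-lactamase/M1 line, treated with compound plus 1 uM carbachol for 5 h, 37 °C.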

[2] = qHTS Assay for Identification of Small Molecule Agonists for Hypoxia Response Element Signaling Pathway (AID 914; active = well fitted activation curve with a large enough effect in the signal ratio, with a control signal flat, not every such curve was filed as active; inconclusive = small, poorly fitted or top-dose-only effect, or effect the other way, or a change in a side signal; the % refers to the signal ratio; also: potency is read from the fitted curve at half-maximal effect; as to activation: top concentration of the series differs between compounds; % of control where 0% means no effect); details: ME-180 (cervical carcinoma) HRE-bla reporter, beta-lactamase ratio, CoCl2, 17 h; activation: stronger effect = higher value
Summary of the method: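 HRE-bla ME-180 cells with beta-lactamase reporter under hypoxia response element, compounds with EC50 CoCl2 for 17 hours at 37 C. CCF4 substrate, 460nm/530nm emission ratio gave %Activity; AC50 from titration series.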
Tags tell the direction and shape of the fitted curve or compound fluorescence and quenching.

SMILES: CN1CCN(c2nc3c(c(=O)n(C)c(=O)n3C)n2Cc2cccc3ccccc23)CC1
- activity change, negative = inhibition [1]: inconclusive: -34.4% [inhibitor]
- activation [2]: inconclusive: -28.7%

SMILES: COCCCNC(=O)c1c(N)n(/N=C/c2ccccn2)c2nc3ccccc3nc12
- activity change, negative = inhibition [1]: inconclusive: -71.3% [inhibitor]
- Potency [2]: inconclusive: 6.31 µM [inhibitor, partial curve]

SMILES: CC(C)C1Cc2c(sc3c2c(=O)n(Cc2ccccc2)c2nncn32)CO1 (configuration not stated)
- activity change, negative = inhibition [1]: inactive: -11.6%
- activation [2]: inconclusive: -30.3%

SMILES: O=C(c1ccncc1)N1CCC2(CC1)CN(c1ccncc1)C2
- activity change, negative = inhibition [1]: inconclusive: -45.3% [inhibitor] [at 7.69 µM]
- activation [2]: inconclusive: -6.45%

SMILES: CN[C@@H]1NC(=O)c2ccccc2N1Cc1ccc(F)cc1
- activity change, negative = inhibition [1]: inactive: 7.06% [at 7.69 µM]
- activation [2]: inactive: -6.12%

SMILES: CC(C)CNC(=O)c1c(N)n(/N=C/c2cccnc2)c2nc3ccccc3nc12
- activity change, negative = inhibition [1]: active: 329% [activator]
- Potency [2]: active: 10 µM

SMILES: CC(=O)NC1=C(OS(=O)(=O)c2ccc(C)cc2)CN(C)C1=O
- activity change, negative = inhibition [1]: inconclusive: -34.1% [inhibitor] [at 7.69 µM]
- activation [2]: inconclusive: 16.1%

SMILES: CN(C)CCC(=O)[C@@]1(O)CC[C@H]2[C@H]3CC=C4C[C@@H](O)CC[C@]4(C)[C@H]3CC[C@]21C
- activity change, negative = inhibition [1]: inconclusive: -119% [inhibitor] [at 7.69 µM]
- Potency [2]: inconclusive: 5.01 µM [inhibitor, single point]

SMILES: COc1cccc(NC(=O)c2cc(C(=O)Nc3cccc(OC)c3)n(C)n2)c1
- activity change, negative = inhibition [1]: inactive: -14.3%
- Potency [2]: inconclusive: 6.31 µM [inhibitor, partial curve]

SMILES: CCOC(=O)c1[nH]c2ccc(OC)cc2c1NC(=O)CCN1CCC(C)CC1
- activity change, negative = inhibition [1]: inconclusive: -78.7% [inhibitor]
- activation [2]: inactive: -29.8%

SMILES: N#Cc1cc(Oc2cccc3cccnc23)c(-n2nnc3ccccc32)cc1C#N
- activity change, negative = inhibition [1]: inconclusive: -72% [inhibitor]
- Potency [2]: inconclusive: 1.26 µM [inhibitor, full curve]

SMILES: COc1ccc(Nc2oc(-c3cccs3)nc2C#N)cc1
- activity change, negative = inhibition [1]: inconclusive: 56.8% [activator]
- activation [2]: inconclusive: 42.5%

SMILES: CCOP(=O)(c1ccccc1)c1nc(-c2ccccc2C)oc1N1CCCCC1 (configuration not stated)
- activity change, negative = inhibition [1]: inconclusive: -45.9% [inhibitor]
- Potency [2]: inconclusive: 10 µM [inhibitor, partial curve]

SMILES: CC(=O)OC(C)(C)N=Nc1ccc(Br)cc1
- activity change, negative = inhibition [1]: inactive: 14.8% [at 7.69 µM]
- activation [2]: inconclusive: 12.4%

SMILES: COc1cccc(/C(O)=C2/C(=O)C(=O)N(CCCN(C)C)C2c2cccc(Cl)c2)c1 (configuration not stated)
- activity change, negative = inhibition [1]: inconclusive: -71.8% [inhibitor]
- activation [2]: inactive: 9.88%

SMILES: Nc1ccc2oc(-c3cc(Br)ccc3Cl)nc2c1
- activity change, negative = inhibition [1]: inconclusive: -40.7% [inhibitor]
- Potency [2]: inconclusive: 10 µM [inhibitor, partial curve]

SMILES: O=C(c1ccccc1F)N1CCC(N2CCCCCC2)CC1
- activity change, negative = inhibition [1]: inconclusive: -70.6% [inhibitor]
- activation [2]: inconclusive: 9.24%

SMILES: Cc1ccc2nc(NCc3ccccc3)[nH]c2c1
- activity change, negative = inhibition [1]: inconclusive: -34.8% [inhibitor]
- Potency [2]: inconclusive: 1.26 µM [inhibitor, partial curve]

SMILES: CC(C)Cc1nc(N2CCCCC2)c(C#N)c2c1CCC2
- activity change, negative = inhibition [1]: inconclusive: -46.1% [inhibitor]
- Potency [2]: inconclusive: 6.31 µM [activator, partial curve]

SMILES: COc1cccc(-c2nc(N3CC(C)CC(C)C3)c3ccccc3n2)c1O (configuration not stated)
- activity change, negative = inhibition [1]: inconclusive: -46% [inhibitor]
- Potency [2]: inconclusive: 7.94 µM [inhibitor, partial curve]

SMILES: COC(=O)CN(c1nc(C)c(Br)c(OC)n1)S(=O)(=O)c1ccc(C)cc1
- activity change, negative = inhibition [1]: inconclusive: -38.9% [inhibitor]
- activation [2]: inconclusive: -26.9%

SMILES: O=C(NCCN1CCOCC1)c1cc2n(n1)C(C(F)(F)F)CC(c1ccc(F)cc1)N2 (configuration not stated)
- activity change, negative = inhibition [1]: inactive: 0.228%
- activation [2]: inconclusive: 3.06%

SMILES: COC(=O)CN(c1nc(C)c(Cl)c(OC)n1)S(=O)(=O)c1ccc(C)cc1
- activity change, negative = inhibition [1]: inconclusive: -56.4% [inhibitor]
- Potency [2]: inconclusive: 0.501 µM [inhibitor, full curve]

SMILES: CCN(CC)Cc1c(O)ccc2c(C)c(CC(=O)OC)c(=O)oc12
- activity change, negative = inhibition [1]: inactive: 25.4%
- Potency [2]: active: 10 µM

SMILES: c1ccc2c(c1)NC(c1ccncc1)n1c-2nc2ccccc21 (configuration not stated)
- activity change, negative = inhibition [1]: inconclusive: 421% [activator]
- activation [2]: inactive: 15.3%

SMILES: CC(NC(=O)OC(C)(C)C)C(=O)Oc1ccc2ccc(=O)oc2c1 (configuration not stated)
- activity change, negative = inhibition [1]: inconclusive: 48.9% [activator]
- activation [2]: inconclusive: 29%

SMILES: CC(NC(=O)NCCCn1ccnc1)(C(F)(F)F)C(F)(F)F
- activity change, negative = inhibition [1]: inactive: -6.4%
- activation [2]: inconclusive: 28%

SMILES: CC[C@H](C)C(=O)O[C@@H]1CCC=C2C=C[C@H](C)[C@@H](CC[C@H]3C[C@@H](O)CC(=O)O3)[C@H]21
- activity change, negative = inhibition [1]: inactive: 6.96% [at 38 µM]
- Potency [2]: inconclusive: 15.8 µM [inhibitor, partial curve]

SMILES: CCC(=O)Nc1c(C#N)c2nc3ccccc3nc2n1C1CCCCC1
- activity change, negative = inhibition [1]: inconclusive: 82.7% [activator]
- Potency [2]: active: 10 µM

SMILES: COc1cc(/C=N/O)ccc1OCc1ccc(C(=O)O)cc1
- activity change, negative = inhibition [1]: inconclusive: 35% [activator]
- Potency [2]: inconclusive: 6.31 µM [activator, partial curve]

SMILES: O=C(c1ccncc1)N1CCC2(CCN(Cc3ccncc3)CC2)CC1
- activity change, negative = inhibition [1]: inconclusive: -44.4% [inhibitor] [at 7.69 µM]
- Potency [2]: inconclusive: 5.01 µM [activator, single point]

SMILES: CSc1nc2[nH]c3c(c2c2nnnn12)CCCC3
- activity change, negative = inhibition [1]: inconclusive: -54% [inhibitor]
- Potency [2]: inconclusive: 12.6 µM [inhibitor, single point]

SMILES: CCCCN(CCCC)C(=O)CSc1nnc2n(C)c(=O)c3c4c(sc3n12)CCCC4
- activity change, negative = inhibition [1]: inconclusive: -45.8% [inhibitor]
- Potency [2]: inconclusive: 1.58 µM [inhibitor, full curve]

SMILES: COc1ccc(-c2nc3c(Br)c(N)c(Br)cc3o2)cc1
- activity change, negative = inhibition [1]: inconclusive: -32.1% [inhibitor]
- activation [2]: inconclusive: -12%

SMILES: Cc1cc(Cc2cc(C)cc(C(C)(C)C)c2O)c(O)c(Cc2cc(C)cc(C(C)(C)C)c2O)c1
- activity change, negative = inhibition [1]: inconclusive: -108% [inhibitor] [at 7.69 µM]
- Potency [2]: inconclusive: 5.01 µM [inhibitor, single point]

SMILES: [N-]=[N+]=NC[C@@H]1O[C@@H](n2cnc3c(N)ncnc32)[C@@H]2O[C@@H]21
- activity change, negative = inhibition [1]: inactive: 10.3% [at 7.69 µM]
- activation [2]: inconclusive: 11.8%

SMILES: CC1=C(CC[C@H](C)CO)O[C@@H]2C[C@@H]3[C@H]4CC[C@H]5C[C@@H](O)CC[C@]5(C)[C@@H]4CC(=O)[C@@]3(C)[C@@H]12
- activity change, negative = inhibition [1]: inactive: -4.84% [at 7.69 µM]
- Potency [2]: inconclusive: 2.51 µM [inhibitor, partial curve]

SMILES: NC(Cc1ccc(Oc2ccc(O)cc2)cc1)C(=O)O (configuration not stated)
- activity change, negative = inhibition [1]: inconclusive: -42.5% [inhibitor]
- activation [2]: inconclusive: -0.828%

SMILES: Cc1[nH]n(-c2ccc(S(=O)(=O)O)cc2)c(=O)c1N=Nc1ccccc1
- activity change, negative = inhibition [1]: inconclusive: 45.3% [activator] [at 7.69 µM]
- activation [2]: inactive: 27.8%

SMILES: CCCSc1nc(N2CCOCC2)c2c(c1C#N)CCCC2
- activity change, negative = inhibition [1]: inconclusive: -67.3% [inhibitor]
- activation [2]: inconclusive: -32.1%

SMILES: O=C1C2ON(c3ccccc3)C(c3cccnc3)C2C(=O)N1Cc1ccccc1 (configuration not stated)
- activity change, negative = inhibition [1]: inactive: -1.42%
- activation [2]: inactive: 1.83%

SMILES: Cc1nnc(NCc2n[nH]c(=O)c3ccccc23)c2ccccc12
- activity change, negative = inhibition [1]: inconclusive: -78.4% [inhibitor]
- Potency [2]: inconclusive: 2 µM [inhibitor, partial curve]

SMILES: CCC(=O)Oc1ccc(C(CC)C(CC)c2ccc(OC(=O)CC)cc2)cc1 (configuration not stated)
- activity change, negative = inhibition [1]: inconclusive: -89.1% [inhibitor]
- Potency [2]: inconclusive: 12.6 µM [inhibitor, single point]

SMILES: CCOC(=O)c1c(C)oc2ccc(OCC(=O)C(C)(C)C)cc12
- activity change, negative = inhibition [1]: inactive: 2.59%
- Potency [2]: inconclusive: 7.94 µM [inhibitor, partial curve]

SMILES: CC1(C)Cc2c(C#N)c(SCC(=O)c3ccccc3)nc(N3CCOCC3)c2CS1
- activity change, negative = inhibition [1]: inconclusive: -20.6% [inhibitor]
- Potency [2]: inconclusive: 10 µM [cytotoxic, side channel, partial curve]

SMILES: N#Cc1c(N2CCOCC2)nc(N2CCCCC2)c2c1CCN(C1CCCCC1)C2
- activity change, negative = inhibition [1]: inconclusive: -46.8% [inhibitor]
- Potency [2]: inconclusive: 6.31 µM [inhibitor, partial curve]

SMILES: CCOC(=O)c1cc2c(=O)n3cccc(C)c3nc2n(CCc2ccccc2)c1=N
- activity change, negative = inhibition [1]: inconclusive: -37.5% [inhibitor]
- Potency [2]: inconclusive: 6.31 µM [activator, partial curve]

SMILES: N#Cc1c(NC(=O)CCC(=O)O)sc2c1CCCC2
- activity change, negative = inhibition [1]: inactive: -1.33%
- activation [2]: inactive: -23.4%

SMILES: CC(=O)N[C@H](Cc1c[nH]c2ccccc12)C(=O)O
- activity change, negative = inhibition [1]: inactive: 4.78% [at 7.69 µM]
- Potency [2]: inconclusive: 1 µM [inhibitor, single point]

SMILES: CCCOc1cc(CN2CCCCC2)cc(C(C)=O)c1
- activity change, negative = inhibition [1]: inconclusive: -30.5% [inhibitor]
- activation [2]: inconclusive: 27.3%

SMILES: CCN(CC)C(=O)CSc1nc2ccccc2c(=O)n1CC1CCCCC1
- activity change, negative = inhibition [1]: inconclusive: -58.1% [inhibitor]
- Potency [2]: inconclusive: 0.794 µM [inhibitor, full curve, poor fit]
